This list was built around the results that the source calls inconclusive (neither active nor inactive); the mix of calls is not that of the screen. No potency is given beside an inconclusive call; the fits are too rough. The source made the active and inactive calls. Calls come from the whole dose curve; as a rule, active = well fitted inhibition curve with a large enough effect; inconclusive = small, poorly fitted or top-dose-only effect; inactive = no such curve, though single readings can be large or run the other way.
Each compound was assayed against Cytochrome P450 3A4 (Homo sapiens) (UniProt P08684) (assay: qHTS Assay for Inhibitors and Substrates of Cytochrome P450 3A4 (AID 884; note: nearly all actives have a fitted effect of over 50% in size)). Details: recombinant CYP3A4, Luciferin-PPXE luminescence; series mostly up to 57.1 µM.
In short: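 20 nM human CYP3A4 with 25 uM Luciferin-PPXE (at KM) in 200 mM KPO4, preincubated 10 min with compound; NADPH regeneration started a 60 min RT reaction. Luciferin detected by luminescence, normalized to 57 uM ketoconazole as full inhibition.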
Potency is the fitted concentration of half-maximal effect; tags give direction and shape of the fitted curve.

Chain of UniProt P08684 (P08684 whole entry, looked up): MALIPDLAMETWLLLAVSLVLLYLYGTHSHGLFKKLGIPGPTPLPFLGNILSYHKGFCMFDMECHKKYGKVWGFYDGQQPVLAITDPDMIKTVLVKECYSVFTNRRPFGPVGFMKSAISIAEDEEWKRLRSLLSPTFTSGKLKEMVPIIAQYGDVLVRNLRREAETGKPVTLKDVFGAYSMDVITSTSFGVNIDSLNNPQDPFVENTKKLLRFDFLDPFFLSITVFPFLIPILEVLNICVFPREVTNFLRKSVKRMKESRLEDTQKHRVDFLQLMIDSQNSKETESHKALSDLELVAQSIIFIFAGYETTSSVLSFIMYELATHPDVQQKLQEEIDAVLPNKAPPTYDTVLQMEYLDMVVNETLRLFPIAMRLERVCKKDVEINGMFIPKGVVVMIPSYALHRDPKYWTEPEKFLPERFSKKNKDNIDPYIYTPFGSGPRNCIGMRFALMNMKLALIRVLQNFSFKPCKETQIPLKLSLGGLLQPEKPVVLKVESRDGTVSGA

SMILES	Potency
Cc1cc(O)cc(O)c1C(=O)O	active: 25.1 µM
COC(=O)c1cccc(C23CC4(C2)[C@H](CN(C)[C@@H]4c2ccccc2)C3c2ccc(C(F)(F)F)cc2)c1 (some centres not stated)	active: 12.6 µM
CC(=O)OC[C@H]1O[C@@H](O/N=C(\C)CCN2CCCCc3nc(C)c(C)cc32)[C@H](OC(C)=O)[C@@H](OC(C)=O)[C@H]1OC(C)=O	inconclusive [inhibitor, partial curve]
CO[C@H]1COC(=O)[C@@H](C)COC(=O)[C@@H](COCc2ccccc2)NC(=O)C/C=C\[C@H]1C	inconclusive [inhibitor, partial curve]
CCC1=C(OC(=O)N(CC)CC)N2C(=O)OC(=NCC(=O)OC)[C@]2(C)[C@H]2C1=CC[C@H]1C(=O)NC(=O)[C@H]12	active: 12.6 µM
O=c1cc(-c2ccc(O)cc2)oc2ccc(O)cc12	active: 3.16 µM
CC1(C)CC(=O)c2c(oc3cc4c(cc23)OCO4)C1	active: 3.98 µM
CCc1cc2c(nc1CC)CCN(CC/C(C)=N/OC[C@@H](C)[C@H](OCc1ccccc1)C(C)C)C2	inconclusive [inhibitor, partial curve]
CCCCCCNC(=O)Nc1ccc(S(=O)(=O)Nc2ccc(CCNC[C@H](O)COc3ccc(O)cc3)cc2)cc1	active: 7.94 µM
C[C@]1(C(=O)NCCc2c[nH]c3ccccc23)C=C[C@@H](Cc2ccccc2)N1C(=O)c1ccccc1	active: 1.58 µM
C/C(=N\NC(=O)c1ccncc1)c1ccc2ccccc2c1O	inconclusive [inhibitor, partial curve]
COC(=O)c1ccc(C(NC(=O)OCc2ccccc2)/C(I)=C/[C@@H](C)C(=O)NCc2ccncc2)cc1 (some centres not stated)	active: 1.58 µM
CO[C@H]1COC(=O)[C@H](C)COC(=O)C/C=C\[C@@H](C)[C@H](OC)COC(=O)C/C=C\[C@@H]1C	inconclusive [inhibitor, partial curve]
COC(=O)C(C(C)=O)C(NC(=O)NCc1ccccc1)c1ccccc1 (configuration not stated)	active: 3.98 µM
CO[C@@H]1COC(=O)C/C=C\[C@@H](C)[C@@H]2C=C[C@H](O)[C@@H](COC(=O)CCC[C@H]1C)O2	inconclusive [inhibitor, single point]
COC(=O)[C@@]1(Cc2ccc(F)cc2)[C@H]2c3cc(C(=O)N4CCCC4)n(CCc4c[nH]c5ccc(OC)cc45)c3C[C@H]2CN1C(=O)c1ccccc1	inconclusive [inhibitor, full curve]
COC(=O)C/C=C\[C@@H](C)[C@@H](/C=N\O[C@@H](C)CN1CCCCc2nc(C)c(C)cc21)NS(=O)(=O)c1ccc(C)cc1	active: 3.98 µM

— PubChem BioAssay (NCATS)
